Experimental data from US20250145701A1 (REMEGEN SHANGHAI, published 2025).

Legend:
[1] = molecular target: T1, human VEGF (ACRO, His tag) (human, UniProt P15692-4 27-191, limits assumed); experiment: ELISA, human VEGF-His coated at 50 ng/ml, anti-human IgG Fc detection, OD450
T1 construct: Bought protein; not shown: His tag
T1 sequence (looked up): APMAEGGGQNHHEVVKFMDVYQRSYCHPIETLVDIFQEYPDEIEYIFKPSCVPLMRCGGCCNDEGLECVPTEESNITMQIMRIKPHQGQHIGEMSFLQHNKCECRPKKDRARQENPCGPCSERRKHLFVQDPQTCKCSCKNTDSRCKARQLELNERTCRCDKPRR

[2] = molecular target: T2, human PD-1 (ACRO, His tag) (human, UniProt Q15116 in part); experiment: bridging ELISA: human PD-1-His coated at 1 ug/mL, antibody, then biotinylated human VEGF at 50 ng/ml and streptavidin-HRP, OD450
T2 construct: Bought protein; not shown: His tag
Procedure: The order of the binding to VEGF and PD-1 was changed for dual ELISA detection. A 96-well ELISA plate was coated with 1 μg/mL human PD-1 (ACRO, His tag) overnight, washed and blocked for 1 hour. […] TMB solution was added for color development, and the OD450 nm absorbance value was read on a microplate reader.

[3] = molecular target: T3, monkey PD-1 (ACRO, His tag) (monkey, UniProt B0LAJ3 25-170); experiment: ELISA, monkey PD-1-His coated at 1 ug/mL, anti-human IgG Fc detection, OD450
T3 construct: Bought protein
Procedure: The binding of candidate molecules and competitor to antigens of different species was detected by ELISA. […] The binding of antibodies to monkey PD-1 was detected by ELISA. An ELISA plate was coated with 1 μg/mL monkey PD-1 (ACRO, His tag) overnight and blocked. Subsequently, the plate was added with gradient dilutions of the sample to be tested and the control antibody, incubated and washed. Then, the plate was added with HRP-labeled anti-human IgG Fc secondary antibody, incubated and washed. After TMB solution was added for color development, the OD450 absorbance value was read on a microplate reader (see Table 15).

[4] = molecular target: VEGF (species and construct not stated); experiment: cell-based or functional assay
[5] = molecular target: T2, human PD-1 (ACRO, His tag); experiment: ELISA, human PD-1-His coated at 1 ug/mL, anti-human IgG Fc detection, OD450
Procedure: The binding of the antibody to human PD-1 was detected by ELISA. 1 μg/mL human PD-1 (ACRO, His tag) was coated on an ELISA plate overnight and blocked. Subsequently, the plate was added with gradient dilutions of the bispecific antibody and the control antibody, incubated and washed. Then, the plate was added with HRP-labeled anti-human IgG Fc secondary antibody, incubated and washed. After TMB solution was added for color development, the OD450 absorbance value was read on a microplate reader (see Table 12). […] Subsequently, the plate was added with gradient dilutions of the sample to be tested and the control antibody, incubated and washed. Then, the plated was added with HRP-labeled anti-human IgG Fc secondary antibody, incubated and washed. After TMB solution was added for color development, the OD450 absorbance value was read on a microplate reader (see Table 13). […] (The control substances were all obtained by in-house expression and purification)

T2 sequence (Q15116 25-167 limits assumed): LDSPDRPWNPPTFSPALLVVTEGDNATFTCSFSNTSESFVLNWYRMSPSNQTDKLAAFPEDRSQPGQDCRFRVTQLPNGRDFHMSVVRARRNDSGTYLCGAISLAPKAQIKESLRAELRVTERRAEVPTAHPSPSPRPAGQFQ
T3 sequence (B0LAJ3 entry or part of it limits assumed, form in doubt): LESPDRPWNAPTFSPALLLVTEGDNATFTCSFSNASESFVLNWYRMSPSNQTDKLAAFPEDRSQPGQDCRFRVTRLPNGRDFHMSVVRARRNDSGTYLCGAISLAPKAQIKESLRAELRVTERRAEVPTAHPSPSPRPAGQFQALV

B1: bispecific antibody AK112 analog targeting PD-1 and VEGF (bispecific antibody, human IgG1, kappa)
heavy: EVQLVESGGGLVQPGGSLRLSCAASGYTFTNYGMNWVRQAPGKGLEWVGWINTYTGEPTYAADFKRRFTFSLDTSKSTAYLQMNSLRAEDTAVYYCAKYPHYYGSSHWYFDVWGQGTLVTVSSASTKGPSVFPLAPSSKSTSGGTAALGCLVKDYFPEPVTVSWNSGALTSGVHTFPAVLQSSGLYSLSSVVTVPSSSLGTQTYICNVNHKPSNTKVDKKV[human IgG1 Fc with changes left out]GGGGSGGGGSGGGGSGGGGSEVQLVESGGGLVQPGGSLRLSCAASGFAFSSYDMSWVRQAPGKGLDWVATISGGGRYTYYPDSVKGRFTISRDNSKNNLYLQMNSLRAEDTALYYCANRYGEAWFAYWGQGTLVTVSSGGGGSGGGGSGGGGSGGGGSDIQMTQSPSSMSASVGDRVTFTCRASQDINTYLSWFQQKPGKSPKTLIYRANRLVSGVPSRFSGSGSGQDYTLTISSLQPEDMATYYCLQYDEFPLTFGAGTKLELK
light: DIQMTQSPSSLSASVGDRVTITCSASQDISNYLNWYQQKPGKAPKVLIYFTSSLHSGVPSRFSGSGSGTDFTLTISSLQPEDFATYYCQQYSTVPWTFGQGTKVEIKRTVAAPSVFIFPPSDEQLKSGTASVVCLLNNFYPREAKVQWKVDNALQSGNSQESVTEQDSKDSTYSLSSTLTLSKADYEKHKVYACEVTHQGLSSPVTKSFNRGEC
notes: Prepared in-house as a control; An anti-PD-1 scFv is fused to the heavy chain C-terminus
TOP OD [1]: 2.68 OD | TOP OD [2]: 3.42 OD | TOP OD [3]: 2.56 OD | maximum inhibition rate of HUVEC proliferation [4]: ~40% | TOP OD [5]: 2.19 OD
